This is one part of the list. At the low end of the ranking the order means little. Measured with an extract: partners may take part in the binding.

The experiment concerns the target T1, HNF4alpha8 (COS-7 nuclear extract) (UniProt P41235-5).
T1 sequence: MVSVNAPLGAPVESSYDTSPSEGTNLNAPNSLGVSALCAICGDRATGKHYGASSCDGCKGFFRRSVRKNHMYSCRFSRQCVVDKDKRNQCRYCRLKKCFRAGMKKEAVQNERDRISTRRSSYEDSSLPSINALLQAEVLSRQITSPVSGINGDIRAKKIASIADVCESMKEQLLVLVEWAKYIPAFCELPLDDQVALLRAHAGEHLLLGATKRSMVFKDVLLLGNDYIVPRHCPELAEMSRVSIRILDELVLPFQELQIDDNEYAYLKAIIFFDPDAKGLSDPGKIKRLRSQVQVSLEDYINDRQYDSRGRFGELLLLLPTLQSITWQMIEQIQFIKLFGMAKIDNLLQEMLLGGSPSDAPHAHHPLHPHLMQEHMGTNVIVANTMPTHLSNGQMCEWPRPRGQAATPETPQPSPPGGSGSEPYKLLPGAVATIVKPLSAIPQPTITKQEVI
Nature of the experiment: protein-binding microarray. To be noted: COS-7 nuclear extract on double-stranded Agilent 4x180k PBM; binding buffer, salt, pH and temperature not given; high values mean tight binding; double strand, one strand shown; sequences stand for … in …GCCTAGGGAGATTAGAGTATCGGTCGA
As to ACTAAATGCAGCCTTGGGCAAGTTACTTAA, the binding signal (log2 normalized intensity) is -1.32.

For the sequence TGGTTGCTAAGAGACAGCTCCACAGCTGGA, the binding signal (log2 normalized intensity) was -1.19.

Turning to ATGACCCAAACTTCACAAAAATGAGTGCAA, the binding signal (log2 normalized intensity) was -0.806.

Consider ACTAAATCTCTCCTAGAGAAAGGGGCTTAG, for which the binding signal (log2 normalized intensity) was -1.36.

CTTTGTCCTAGTGCATGCTGGGAGTCGGGC: the binding signal (log2 normalized intensity) was 0.728.

Consider CCAGTGAGTGCAGCAGTGTACTTGAGCTTC, for which the binding signal (log2 normalized intensity) was 0.72.

As for CACCAAGGCCGGAAAAGATTAGATTGCTCA, the binding signal (log2 normalized intensity) was -1.25.

On to TATGTCAGGCTCAGGGACCCAGCGGAATGC, for which the binding signal (log2 normalized intensity) is -1.3.

In the case of AGTCAGTTCCCCTGCGGACTCTGGAACCAT, the binding signal (log2 normalized intensity) was 4.08.

As for TTTATCTCCTCCCCTTGAGACTTTAATCTC, the binding signal (log2 normalized intensity) turned out to be 2.61.

Turning to GAACGCTTGTGATTACACTGGGCTCACCTG, the binding signal (log2 normalized intensity) is -1.27.

Take ACCTTCCAGACAGAGAGGTCAGCAAATGTG: the binding signal (log2 normalized intensity) was 1.2.

Consider ACAGTTACCGAGAGGTAACTCCCCCTTCAT, for which the binding signal (log2 normalized intensity) was found to be 2.93.

In the case of GGGAATCAGTCCATAAATACACAATCTGAA, the binding signal (log2 normalized intensity) is -1.24.

As to GCTGAAGTTCCCAGCCCTTCACCAGAGCCG, the binding signal (log2 normalized intensity) is -1.24.

On to GGACTAAATTCTGCGGCGGAAGGACACAGA, for which the binding signal (log2 normalized intensity) is -1.28.

Turning to TCAACTATTTAAATAGCTCAAGCCTGTTCC, the binding signal (log2 normalized intensity) is -1.14.

CGATAAACCCAGGCAATGACTCCAAAGTTC: the binding signal (log2 normalized intensity) stood at 2.95.

Consider GTGTTTAATGTTTTCATTCTGATTTGCACA, for which the binding signal (log2 normalized intensity) was 0.934.

As for AGGGTAGTTTGGAGATGCCGTTAAGCAGAT, the binding signal (log2 normalized intensity) is -0.662.

As for CCCCAGTAACAAAGGAAAGAGCTAACATAT, the binding signal (log2 normalized intensity) is -1.28.

Consider GCTCGTGTCATCTCTGGCTAACAGGTCAGG, for which the binding signal (log2 normalized intensity) amounted to 1.69.

For AGTCCAAAGGTCAGCCGGGGAAGGTGCAGG, the binding signal (log2 normalized intensity) is 5.55.

In the case of AGACACGCCTTGCACAAATTTCAGATATCT, the binding signal (log2 normalized intensity) is -1.33.

Consider GTAGTGGTTGAATTTCAGAGGGAAGAGGAA, for which the binding signal (log2 normalized intensity) was -1.29.

For the sequence GCCCCACTGGGGTGGAGATGCCGTCGGCAC, the binding signal (log2 normalized intensity) was -0.359.

With CTCTACTGTCCATCTTTTGCCCCTCTTATG, the binding signal (log2 normalized intensity) is 3.58.

With CCTTAAAGCATGACAAAATAACGAAGGCAT, the binding signal (log2 normalized intensity) is -1.24.

Consider CTCCAGGGGACTGCCTCTTCAGGAGGCACT, for which the binding signal (log2 normalized intensity) is -1.31.

Regarding ATTTTGCTCTTTGTACCGTTTGAACAGCCA, the binding signal (log2 normalized intensity) came out at 3.04.

Consider GCTCCCCCAGTGAGCAATTCTTGTCCCTTT, for which the binding signal (log2 normalized intensity) was 3.11.

With AGGGGGGTGGGCACCCCTGCCCCCATGTTG, the binding signal (log2 normalized intensity) was 3.2.

AGCAGGGGGCGCAGAAGGGATGGGAACCGA: the binding signal (log2 normalized intensity) was -1.18.

GCAGCCCAGCAAAGAGGGTCAAAGCCCAGG: the binding signal (log2 normalized intensity) was 0.556.

Take AGCCAAGATTACAGCCACATGCTAACACAC: the binding signal (log2 normalized intensity) was -1.34.

AAACTGTTATCTCTCAACTCAGTGAGGGCT: the binding signal (log2 normalized intensity) was -1.3.

For TTCATCCTGAGAGGGCTCAAGGTCTGCATG, the binding signal (log2 normalized intensity) was 1.65.

With TAATGATTTGTAAATCTCTAGTCCCAGCCT, the binding signal (log2 normalized intensity) was -1.24.

On to GCCGGTTCCCGCCCAAGGAGACAGGCTTTG, for which the binding signal (log2 normalized intensity) was -1.24.

In the case of AAACCCACGCCCACCCTATTGATGCAAGGA, the binding signal (log2 normalized intensity) was 2.17.

With GCACGCACACCGAGCACGGTGCAGGGAGGA, the binding signal (log2 normalized intensity) is -1.39.

As to CGCCGCATCTACCAGCGTAATTCTGGCTCT, the binding signal (log2 normalized intensity) is -1.31.

CTTGTCTGGCCTTCCTGGCCCTAGCTGGGT: the binding signal (log2 normalized intensity) amounted to 0.862.

Turning to CCACATACAAGTCACTCTTCATTTCCCTCA, the binding signal (log2 normalized intensity) is -1.21.

For the sequence AAAGTCTTTCTCTTTCAAGATAACAAGGCA, the binding signal (log2 normalized intensity) stood at 0.808.

TGCTGGAATGAAGACTCACATCTATCTCCC: the binding signal (log2 normalized intensity) is -0.571.

For the sequence TACCAGGAATATTGCCCCCTAATGGTATTT, the binding signal (log2 normalized intensity) was 3.76.

As for TTGGCCCTCAGCCCAATGTGGTAGGATGGC, the binding signal (log2 normalized intensity) came to 0.0591.

As for ATAACATGAGGTAGAGGGACACTGATAACA, the binding signal (log2 normalized intensity) is -1.44.

As to GTTGTACCTGACTAAAACCTGCTGCAGGAG, the binding signal (log2 normalized intensity) is -1.02.

With ATCCTTCAAAGCTGAGAATTGGGAGGGCTT, the binding signal (log2 normalized intensity) is -1.4.

Take ATTTCACAGCAACCTCAGACCTCTCCCGCC: the binding signal (log2 normalized intensity) came to 1.3.

Turning to ATTATTGCCTGGCATCTAACCTTCGTCCTT, the binding signal (log2 normalized intensity) was determined as 4.45.

For the sequence TAGCCTCAAATTCCTGGGCTCAAACAATCC, the binding signal (log2 normalized intensity) was -1.36.

As for CCTTCAGTTCTTATCTCGTACTTCTGTTGT, the binding signal (log2 normalized intensity) came out at 2.18.

On to GAGTCTCCTGGGTAATCACCAAACTTCACA, for which the binding signal (log2 normalized intensity) is -1.32.

With GAAAGGATCTCACCCAAACCATCCCAGGCA, the binding signal (log2 normalized intensity) worked out at 3.1.

TTGAAGAAATGGTGGACTTTGTAGCTCAAA: the binding signal (log2 normalized intensity) was 4.79.

In the case of GACTTCCATTGTGTTGCAGATGATCAAGAG, the binding signal (log2 normalized intensity) stood at 1.19.

Turning to ACTGTAAGATCAAGATTAAGAAGAGCAGCT, the binding signal (log2 normalized intensity) was -1.32.

In the case of CCGACCCGCCCGACTACAACAGCCTTGCAG, the binding signal (log2 normalized intensity) is -0.809.

In the case of TGTACTAATGATTTGTAAATCTCTAGTCCC, the binding signal (log2 normalized intensity) was -1.16.

For CTCAACTCCCTCTGAAGGGAGGGCCAAGCC, the binding signal (log2 normalized intensity) is -1.24.

Regarding ATCTTCCTCCCCCCTTGGCTACATGTTTGT, the binding signal (log2 normalized intensity) was found to be 3.73.

GTGCTGACCTCCTGTCTCATCCTGTGACCA: the binding signal (log2 normalized intensity) came to 2.18.

For the sequence GGGTTGGCATGCATATGAGTAATGTGAAGA, the binding signal (log2 normalized intensity) was determined as 0.748.

Consider TCCTTATTTATCTTCCAGCGGGTGCTTAAA, for which the binding signal (log2 normalized intensity) is 0.716.

As to CTCCTGGACTTTGGTCTCATGGGCCTAAAC, the binding signal (log2 normalized intensity) is 5.27.

Turning to GGGGAAGCTGTTGGGCGCCGGAACTGGTCC, the binding signal (log2 normalized intensity) is -1.3.

For the sequence TGTTTGTAAACTGTCATGGTGCTGGCGGGA, the binding signal (log2 normalized intensity) was 0.745.

CATATCTGGAATTTCAAAGGGAGCATATGT: the binding signal (log2 normalized intensity) came to 1.31.

In the case of GTGGCAGGCACTTAGCAAATATTTACTGAA, the binding signal (log2 normalized intensity) was -0.877.

The values are drawn from paper PMC10726135.
